Our source for the self-cleavage values is the RNAGym collection of RNA variant scans (doi:10.1093/nar/gkz1192).

B1: CPEB3 Ribozyme (parent)
chain: UAACAGGGGGCCACAGCAGAAGCGUUCACGUCGCAGCCCCUGUCAGAUUCUGGUGAAUCUGCGAAUUCUGCUGUAUAUCUC

The source gives no read counts; variants with many changes may rest on few reads.

Variants of B1 are the subject of this data set. Nature of the data set: self-cleavage, relative activity (ratio to wild type); higher = more cleavage; in vitro, sequencing. Put shortly: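 After error-prone PCR and barcoding, CPEB3 ribozyme mutant libraries were transcribed with T7 RNA polymerase at 37°C for 5 hours, then given 15 min with DNase I before an EDTA stop, and they cleaved during both steps. Reverse transcription with template switching preceded Illumina sequencing. Relative activity divides a variant's cleaved/total read fraction by the unmutated ribozyme's. At least 5 reads were required per variant, and three batches were averaged.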
With UAACAGGGGGCCACAGCAGAAGCGUUCACAUCGCAGCCCCUGUCAGGUUCUGGUGGACCUGCGAAUUCUGCUGUAUAUCUC, the self-cleavage worked out at 0.26.

As for UAACAGGGGGCCACAGCAGAAGCGUUCACUUCGCAGCCCCCGUCAGAUUCUGGUGAACCUGCGAGUUCUGCUAUAUAUCUC, the self-cleavage was 0.13.

On to UAACAGGGGGCCACAGCAGAAGCGUUCACAUCGCAGCCCCCGUCUGAUUCUGGUGAAUCUGCGAAUUCUGCUGUACAUCUC, for which the self-cleavage was determined as 0.13.

For UAACAGGGGGCCACAGCAGAAGCGUUCACCACGCAGCCCCAGUCAGAUUCUGGUGAAUCCGCGAACUCUGCUGUAUAUCUC, the self-cleavage was found to be 0.06.

Turning to UAACAGGGGGCCACAGCAGAAGCGUUCACGACGCAGCCCCUGUCUGAUUCUGGGGAAUCUGCGAAUUCUGCUGUAUAUCUC, the self-cleavage was found to be 0.18.

With UAACAGGGGGCCACAGCAGAAGCGUUCACGACGCAGCCCCUGUCAGUUUCCGGUGAAUCUGCGAAUUCUGCUGUAUAUCUC, the self-cleavage amounted to 0.19.

Consider UAACAGGGGGCCACAGCAGAAGCGUUCACAUCGCAGCCCCUGUCAGAUUCAGGUGAAUCUGCGAAUUCCGCUGUAUAUCUC, for which the self-cleavage was determined as 0.09.

Turning to UAACAGGGGGCCACAGCAGAAGCGUUCACAUCGCAGCCCCUGUCAGAUCCUGGUGAAUCUGCGAAUUCAGCUGUAUAUCUC, the self-cleavage came out at 0.34.

As for UAACAGGGGGCCACAGCAGAAGCGUUCACGACGCAGCCCCUGUCAGAUUCUGGUGGAUCAGCGAAUUCUGCUGUAUAUCUC, the self-cleavage stood at 0.1.

With UAACAGGGGGCCACAGCAGAAGCGUUCACUUCGCAGCCCCUGUCAGAUUCUGGUGAAUCUGCGAAUCCUGCUGCAUAUCUC, the self-cleavage was determined as 0.13.

Consider UAACAGGGGGCCACAGCAGAAGCGUUCACGACGCAGCCCCUGUCGGAUUCUGGCGAGACUGCGAAUUCUGCUGUAUAUCUC, for which the self-cleavage is 0.07.

UAACAGGGGGCCACAGCAGAAGCGUUCACAUCGCAGCCCCCGUCAGAUUCUGGUGUAUCUGCGAAUUCAGCUGUAUAUCUC: the self-cleavage amounted to 0.06.

In the case of UAACAGGGGGCCACAGCAGAAGCGUUCACGACGCGGCCCCUGUCAGAUUCCGGUGAAUCUGCGCAUUCUGCGGUAUAUCUC, the self-cleavage is 0.61.

In the case of UAACAGGGGGCCACAGCAGAAGCGUUCACGACGCUGCCCCCGUCAGAUUCAGGUGAAUCAGCGAAUUCCGCUGUAUAUCUC, the self-cleavage was 0.09.

Take UAACAGGGGGCCACAGCAGAAGCGUUCACCUCGCAGCCCCUCUCAGAUUCUGGUGAAUCUGCGAAUUCUGCUGUUUAUCUC: the self-cleavage amounted to 0.27.

In the case of UAACAGGGGGCCACAGCAGAAGCGUUCACAUCGCAGCCUCUGUCAGAUUCUGGUGAAUCUGCGAAUUCUGCUGUAUAUCCC, the self-cleavage was found to be 0.2.

Regarding UAACAGGGGGCCACAGCAGAAGCGUUCACGACGCGGCCCCUGUCAGAUUCUGGUGAAUCUGCGGAUUCUGCUGUAUAUCUC, the self-cleavage worked out at 1.31.

With UAACAGGGGGCCACAGCAGAAGCGUUCACGACGCAGCCCCUGUCAGAUUCUGGUGAAUCUGCGAAUUCUGCUGUAUGGCUC, the self-cleavage amounted to 0.34.

With UAACAGGGGGCCACAGCAGAAGCGUUCACGACGCUGCCCCUGUCAGAUUCUGGUGAAUCUGCGAAUUCCGCCGUAUAUCUC, the self-cleavage was found to be 0.06.

Regarding UAACAGGGGGCCACAGCAGAAGCGUUCACAUCGCAGCCCCUGCCAGAUUCUGGUGAAUAUGCGAAUACUGCUGUAUAUCUC, the self-cleavage was 0.18.

Consider UAACAGGGGGCCACAGCAGAAGCGUUCACGACGCUGCCCCUGUCAGAUUCUGGUGAAUCUGCGUAUUCUGCUGUAUAUCUC, for which the self-cleavage was 0.16.

Consider UAACAGGGGGCCACAGCAGAAGCGUUCACCUCGCAGCCCCUGUCAGAUUCAGGUGAAACCGCGAACUCUGCCGUAUAUCCC, for which the self-cleavage worked out at 0.17.

With UAACAGGGGGCCACAGCAGAAGCGUUCACGACGCAGCCCCUGUCUGAUUCUGGUGAAUCUGCGGAUUCAGCUGUAUAUCUC, the self-cleavage was found to be 0.09.

Consider UAACAGGGGGCCACAGCAGAAGCGUUCACAACGCAGCCCCUGUCAGUUUCUGGCGGAUCUGCGAAUUCUGCUGUAUAACUC, for which the self-cleavage worked out at 0.

For UAACAGGGGGCCACAGCAGAAGCGUUCACAUCGCAGCCCCUGUCAGAUUCUGGUGAGUCUGCAAAUUCUGCUGUAUACCUC, the self-cleavage came out at 0.08.

For the variant UAACAGGGGGCCACAGCAGAAGCGUUCACCCCGCAGCCCCUGUCAGAUUCUGGUGAAUCCGCGAAUUCUGCUGUAUAUCUC, the self-cleavage was 0.16.

Turning to UAACAGGGGGCCACAGCAGAAGCGUUCACGACGCAGACCCUGUCAGAUUCUGGUGAAUCUGCGAAUUCUGCAGUAUAUCUC, the self-cleavage is 0.11.

Consider UAACAGGGGGCCACAGCAGAAGCGUUCACAUCGCAGCCCCUGCCAGAUUCUGGUGAAUCUGCGAACUCUGCUGUAUAUCUC, for which the self-cleavage worked out at 0.07.

In the case of UAACAGGGGGCCACAGCAGAAGCGUUCACUUCGCAGCCCCUGCCGGAUUCUGGUGAAUCUGCGAACUCUGCUGUAUAUCUC, the self-cleavage worked out at 0.15.

Turning to UAACAGGGGGCCACAGCAGAAGCGUUCACAUCGCAGCCCCUGUCCGAUUCUGGUGAGUCUGCGAAUUCUGCAGUAUAUCUC, the self-cleavage is 0.07.

For UAACAGGGGGCCACAGCAGAAGCGUUCACUUCGCAGCCCCUGACAGAUCCUGGUGAAUCUGCGAAUUCUGCUGUAUAUCUC, the self-cleavage was found to be 0.16.

In the case of UAACAGGGGGCCACAGCAGAAGCGUUCACGACGCGGCCCCUGUCUGAUUCUGGUGAAUCUGCGAAUCCUGCUGUAUAUCUC, the self-cleavage was 0.34.

In the case of UAACAGGGGGCCACAGCAGAAGCGUUCACGACGCAGCCCCUGUCAGAUUCUGGUGAAUCUGCGUAUUUUGCUGUAUAUCCC, the self-cleavage is 0.2.

Turning to UAACAGGGGGCCACAGCAGAAGCGUUCACGACGCUGCCCCUGUCAGAUUAUGGUGAAUCUGCGAAUUCUGCCGUAUACCUC, the self-cleavage stood at 0.12.

With UAACAGGGGGCCACAGCAGAAGCGUUCACAUCGCUGCCCCUGUCAGAGUCUGGUGAAUCCGCGAAUUCUGCUGUAAAUCUC, the self-cleavage is 0.13.

As for UAACAGGGGGCCACAGCAGAAGCGUUCACGACGCAGCCCCUGUCUGAUUCUGGUGAAUCUGCGAAUUCUGCAGUAUAUCUC, the self-cleavage amounted to 0.44.

Turning to UAACAGGGGGCCACAGCAGAAGCGUUCACAUCGCAGCCCCUGUCAGAUUCUGGAGAAUCUGCGAAUUCUGCUGUAUUUCUC, the self-cleavage amounted to 0.06.

In the case of UAACAGGGGGCCACAGCAGAAGCGUUCACGACGCGGCCCCUGUCAGAUUCUGGCGAAUCUGCGAAUUCUGCUGUAUACCUC, the self-cleavage was 1.28.

For the variant UAACAGGGGGCCACAGCAGAAGCGUUCACGAGGCAGCCCCUGUCAGAUUCUGGUGAAUCUGCGAACUCUGCUGUAUAUCUC, the self-cleavage came out at 0.07.

Regarding UAACAGGGGGCCACAGCAGAAGCGUUCACUUCGCCGCCCCUGUCAGAUUCUGGUGAAUCUGCGUAUUCUGCUGUAUAUCUC, the self-cleavage worked out at 0.21.

UAACAGGGGGCCACAGCAGAAGCGUUCACGACGCAGCCCCUGUCAGGUUCUGGUGAAUCUGCGAAUUCUGCUGUUUAACUC: the self-cleavage was 0.8.

Regarding UAACAGGGGGCCACAGCAGAAGCGUUCACGACGCAGCCCCUGUCUGAUUCUGGUGAAUCUGCGAAUUCUGCUGAAUACCUC, the self-cleavage came out at 0.35.

With UAACAGGGGGCCACAGCAGAAGCGUUCACAUAGCAGCCCCUGUCAGACUCUGGUGAAUCUGCGAAUUCUGCUGUAUAUGUC, the self-cleavage amounted to 0.06.

Consider UAACAGGGGGCCACAGCAGAAGCGUUCACGACACAGCCCCUGUCAGAUUCAGGUGAAUCUGCGAAUUCUGCUGUAUAUCUC, for which the self-cleavage amounted to 0.25.

In the case of UAACAGGGGGCCACAGCAGAAGCGUUCACGACGCAGCCCCUGUCAGAUUCUGGUGAAUCUGCGAAUUGUGCCGUAUAUCUC, the self-cleavage came to 0.08.

Take UAACAGGGGGCCACAGCAGAAGCGUUCACAUCGCAGCCCCUGCCUGAUUCUGGUGAGUCUGCGAAUUCUGCUGCAUAUCUC: the self-cleavage amounted to 0.15.

Take UAACAGGGGGCCACAGCAGAAGCGUUCACAUCGCAGCCCCUAUCAGACUCUGGUGAAUCUGCGAAUUCCGCUGCAUAUCUC: the self-cleavage is 0.16.

As to UAACAGGGGGCCACAGCAGAAGCGUUCACAUCGCAGCCCCCGUCAGACUCUGGCGAAUCUGCGAAUUCUGCUGUAUAUCUC, the self-cleavage was determined as 0.12.

Consider UAACAGGGGGCCACAGCAGAAGCGUUCACGACGCUGCCCCUGUCAGAUUCCGGUGAAUCUGCGAAUCCUGCCAUAUAUCUC, for which the self-cleavage came out at 0.09.

UAACAGGGGGCCACAGCAGAAGCGUUCACAUCGCCGCCCCUGCCAGAUUCUGGUGAAUCCGCGAUUUCCGCUGUAUAUCUC: the self-cleavage was 0.09.

For UAACAGGGGGCCACAGCAGAAGCGUUCACGACGCAGCCCCUGUCAGGUUCUGGUGAAUCCGCGUAUUCUGCUGUAUAUCUC, the self-cleavage amounted to 0.14.

Regarding UAACAGGGGGCCACAGCAGAAGCGUUCACGACGCAGCCCCUGUCUGUUUCUGGUGGAUCUGCGAAUUCUGCUGUAUAUCUC, the self-cleavage turned out to be 0.07.

With UAACAGGGGGCCACAGCAGAAGCGUUCACAUCGCAGCCCCUGUCAGACUCUGGUGAAUCUGCGAAUUCUGCUGUAUGUCUC, the self-cleavage is 0.31.

As for UAACAGGGGGCCACAGCAGAAGCGUUCACUUCGCGGCCCCUGUCAGAUUCUGGUGAAUCUGCGAAUUCUGCCGUAUACCUC, the self-cleavage worked out at 0.12.

As for UAACAGGGGGCCACAGCAGAAGCGUUCACAUCGCAUCCCCUGCCAGAUUCUGGUGAAUCUGCGAAUUCUGCGGUAUGUCUC, the self-cleavage is 0.05.

With UAACAGGGGGCCACAGCAGAAGCGUUCACGACGCUGCCCCUGUCAGAUUCUGGUGUAUCUGCGAAUUCUGCUGCAUAUCUC, the self-cleavage came out at 0.26.

As for UAACAGGGGGCCACAGCAGAAGCGUUCACUUCGCGGCCCCAGUCAGAUUCUGGUGAAUCUGCGAACUCUGCUGUAUAUCUC, the self-cleavage was determined as 0.12.

For UAACAGGGGGCCACAGCAGAAGCGUUCACAUCGCAGCCCCCGUAAGAUUCUGGUGAAUCUGCGAAUUCUGCUGUAUAUCUC, the self-cleavage was determined as 0.13.

In the case of UAACAGGGGGCCACAGCAGAAGCGUUCACAUCGCAGCCCCUGUCAGAUUCUGGUGAAUCUGCGAGUUCCGCAGUAUAUCUC, the self-cleavage is 0.12.

For the variant UAACAGGGGGCCACAGCAGAAGCGUUCACGACGCAGUCACUGUCAGAUUCUGGUGAAUCUGCGAAUACUGCUGUAUAUCUC, the self-cleavage was determined as 0.05.

As for UAACAGGGGGCCACAGCAGAAGCGUUCACGACGCAGCCCUUGUCAGAUUCUGCUGAAUCUGCGAAUUCUGCUGUAUAUCUC, the self-cleavage was found to be 0.34.

Consider UAACAGGGGGCCACAGCAGAAGCGUUCACGACGCAGCCCUUGUCAGGUUCUGGUGAAUCUGCGAAUUCAGCUGUAUAUCUC, for which the self-cleavage is 0.11.

Take UAACAGGGGGCCACAGCAGAAGCGUUCACGACGCAGCCCCUGUAAGAUUCUGGUGAAUCUGCGAAUACUGCUGUGUGUCUC: the self-cleavage stood at 0.04.

As for UAACAGGGGGCCACAGCAGAAGCGUUCACGACGCGGCCCCUGCCAGAUUCCGGUGAAUCUGCGAAUUCUGCUGUAUAUCUC, the self-cleavage came to 0.86.

With UAACAGGGGGCCACAGCAGAAGCGUUCACAUCGCAGCCCCUGUCAAAUUCUGGUGAAUCUGCGAAUUCUGCAGUAUAUCUC, the self-cleavage came to 0.13.

For UAACAGGGGGCCACAGCAGAAGCGUUCACGACGCAGCCCCUGUCAGGUUCUGGUGUAUCUGCGAAUUCUGCUGUAUAUCUC, the self-cleavage was 0.19.

UAACAGGGGGCCACAGCAGAAGCGUUCACUUCGCAGCCCCUGUCAGGUUCUGGUGAAUCUGCGAAUUCUGCUGAAUAUCUC: the self-cleavage is 0.22.

UAACAGGGGGCCACAGCAGAAGCGUUCACGACGCAGCCCCUGUCAGGUUCUGGUGAAUCUGCGAACUCUGCUGCAUAUCUC: the self-cleavage is 0.17.
